Assay results published in patent US5620954A, “Peptide compositions and uses therefor” (Magainin Pharmaceuticals, Inc., priority 1995, dated 1997).
Not every detail of the peptide structures is certain; ends, links or a residue may be inferred. Peptide text beside a SMILES is read from it.

How the values were obtained:
Experiment in all cases: Antibacterial assay, minimal inhibitory concentration (MIC), microtiter broth dilution
Assay type in all cases: cell-based
[1] = tested on: P. aeruginosa strain ATCC 27853; details: P. aeruginosa ATCC 27853; Mueller Hinton broth; 16-20 hours at 37° C.
From the text: (§1) Table I, which follows, indicates the Minimal Inhibitory Concentration (MIC) in μg/ml of Peptides (SEQ ID NO:1) through (SEQ ID NO:27 ) against S. aureus strain ATCC 25923, P. aeruginosa strain ATCC 27853, and E.coli ATCC strain 25922. (Legend) The procedure for the antibacterial assay is based upon the guidelines of the National Committee for Clinical Laboratory Standards, Document M7-T2, Volume 8, No. 8, 1988. Stock solutions of the hereinabove described peptides in accordance with the present invention are prepared at a concentration of 512 μg/ml in sterile deionized distilled water and stored at -70° C. The stock peptide solution is diluted in serial dilutions (1:2) down the wells of a microtiter plate so that the final concentrations of peptides in the wells are 0.25, 0.50, 1, 2, 4, 8, 16, 32, 64, 128, and 256 μg/ml. 1-5×10^5 CFUs/ml of either S. aureus ATCC 25923, E. coli ATCC 25922, or P. aeruginosa ATCC 27853 were added to the wells in full strength Mueller Hinton broth (BBL 11443) from a mid-log culture. The inoculum is standardized spectrophotometrically at 600 nm and is verified by colony counts. The plates are incubated for 16-20 hours at 37° C., and the minimal inhibitory concentration (MIC) for each peptide is determined. Minimal inhibitory concentration is defined as the lowest concentration of peptide which produces a clear well in the microtiter plate.

E.coli ATCC strain 25922 = details: E. coli ATCC 25922; Mueller Hinton broth; 16-20 hours at 37° C.
From the text: as §1

[2] = tested on: S. aureus strain ATCC 25923; details: S. aureus ATCC 25923; Mueller Hinton broth; 16-20 hours at 37° C.
From the text: as §1

Row | Structure (SMILES) | Minimal Inhibitory Concentration (MIC), Activity, P. aeruginosa [1] | Minimal Inhibitory Concentration (MIC), Activity, E. coli (E.coli ATCC strain 25922) | Minimal Inhibitory Concentration (MIC), Activity, S. aureus [2]
1 | CC[C@H](C)[C@H](NC(=O)[C@H](CCCCN)NC(=O)[C@H](CC(C)C)NC(=O)[C@H](C)NC(=O)[C@H](C)NC(=O)[C@H](CCCCN)NC(=O)[C@H](CC(C)C)NC(=O)[C@H](C)NC(=O)[C@H](CCCCN)NC(=O)CNC(=O)[C@H](CC(C)C)NC(=O)[C@H](CO)NC(=O)[C@H](C)NC(=O)[C@H](Cc1ccccc1)NC(=O)CN)C(=O)NCC(=O)N[C@@H](C)C(=O)N[C@@H](CC(N)=O)C(=O)N[C@@H](CC(C)C)C(=O)N[C@@H](CC(C)C)C(=O)NCC(=O)NCC(=O)N[C@H](C(=O)N1CCC[C@H]1C(=O)N[C@@H](CCC(N)=O)C(=O)N[C@@H](CCC(N)=O)C(=O)O)[C@@H](C)O [SEQ ID NO: 4] (H-GFASLGKALKAALKIGANLLGGTPQQ-OH) | 128 µg/mL | 32 µg/mL | 64 µg/mL
2 | CC(C)C[C@H](NC(=O)[C@H](C)NC(=O)[C@H](C)NC(=O)[C@H](CCCCN)NC(=O)[C@H](CC(C)C)NC(=O)[C@H](C)NC(=O)[C@H](CCCCN)NC(=O)CNC(=O)[C@H](CC(C)C)NC(=O)[C@H](Cc1ccccc1)NC(=O)[C@H](CO)NC(=O)[C@H](C)NC(=O)[C@H](Cc1ccccc1)NC(=O)CN)C(=O)N[C@@H](CCCCN)C(=O)NCC(=O)N[C@@H](C)C(=O)N[C@@H](CC(N)=O)C(=O)N[C@@H](CC(C)C)C(=O)N[C@@H](CC(C)C)C(=O)NCC(=O)NCC(=O)N[C@H](C(=O)N1CCC[C@H]1C(=O)N[C@@H](CCC(N)=O)C(=O)N[C@@H](CCC(N)=O)C(=O)O)[C@@H](C)O [SEQ ID NO: 6] (H-GFASFLGKALKAALKGANLLGGTPQQ-OH) | 128 µg/mL | 32 µg/mL | 32,64 μg/ml
3 | CC[C@H](C)[C@H](NC(=O)[C@H](CCCCN)NC(=O)[C@H](CC(C)C)NC(=O)[C@H](C)NC(=O)[C@H](C)NC(=O)[C@H](CCCCN)NC(=O)[C@H](CC(C)C)NC(=O)[C@H](C)NC(=O)[C@H](CCCCN)NC(=O)CNC(=O)[C@H](CC(C)C)NC(=O)[C@H](Cc1ccccc1)NC(=O)[C@H](CO)NC(=O)[C@H](C)NC(=O)[C@H](Cc1ccccc1)NC(=O)CN)C(=O)N[C@@H](C)C(=O)N[C@@H](CC(N)=O)C(=O)N[C@@H](CC(C)C)C(=O)N[C@@H](CC(C)C)C(=O)NCC(=O)NCC(=O)N[C@H](C(=O)N1CCC[C@H]1C(=O)N[C@@H](CCC(N)=O)C(=O)N[C@@H](CCC(N)=O)C(=O)O)[C@@H](C)O [SEQ ID NO: 7] (H-GFASFLGKALKAALKIANLLGGTPQQ-OH) | 32 µg/mL | 8 µg/mL | 16 µg/mL
4 | CC[C@H](C)[C@H](NC(=O)[C@H](CCCCN)NC(=O)[C@H](CC(C)C)NC(=O)[C@H](C)NC(=O)[C@H](C)NC(=O)[C@H](CCCCN)NC(=O)[C@H](CC(C)C)NC(=O)[C@H](C)NC(=O)[C@H](CCCCN)NC(=O)CNC(=O)[C@H](CC(C)C)NC(=O)[C@H](Cc1ccccc1)NC(=O)[C@H](CO)NC(=O)[C@H](C)NC(=O)[C@H](Cc1ccccc1)NC(=O)CN)C(=O)NCC(=O)N[C@@H](CC(N)=O)C(=O)N[C@@H](CC(C)C)C(=O)N[C@@H](CC(C)C)C(=O)NCC(=O)NCC(=O)N[C@H](C(=O)N1CCC[C@H]1C(=O)N[C@@H](CCC(N)=O)C(=O)N[C@@H](CCC(N)=O)C(=O)O)[C@@H](C)O [SEQ ID NO: 8] (H-GFASFLGKALKAALKIGNLLGGTPQQ-OH) | 32 µg/mL | 16 µg/mL | 16 µg/mL
5 | CC[C@H](C)[C@H](NC(=O)[C@H](CCCCN)NC(=O)[C@H](CC(C)C)NC(=O)[C@H](C)NC(=O)[C@H](C)NC(=O)[C@H](CCCCN)NC(=O)[C@H](CC(C)C)NC(=O)[C@H](C)NC(=O)[C@H](CCCCN)NC(=O)CNC(=O)[C@H](CC(C)C)NC(=O)[C@H](Cc1ccccc1)NC(=O)[C@H](CO)NC(=O)[C@H](C)NC(=O)[C@H](Cc1ccccc1)NC(=O)CN)C(=O)NCC(=O)N[C@@H](C)C(=O)N[C@@H](CC(C)C)C(=O)N[C@@H](CC(C)C)C(=O)NCC(=O)NCC(=O)N[C@H](C(=O)N1CCC[C@H]1C(=O)N[C@@H](CCC(N)=O)C(=O)N[C@@H](CCC(N)=O)C(=O)O)[C@@H](C)O [SEQ ID NO: 9] (H-GFASFLGKALKAALKIGALLGGTPQQ-OH) | 64 µg/mL | 8 µg/mL | 16,32 μg/ml
6 | CC[C@H](C)[C@H](NC(=O)[C@H](CCCCN)NC(=O)[C@H](CC(C)C)NC(=O)[C@H](C)NC(=O)[C@H](C)NC(=O)[C@H](CCCCN)NC(=O)[C@H](CC(C)C)NC(=O)[C@H](C)NC(=O)[C@H](CCCCN)NC(=O)CNC(=O)[C@H](CC(C)C)NC(=O)[C@H](Cc1ccccc1)NC(=O)[C@H](CO)NC(=O)[C@H](C)NC(=O)[C@H](Cc1ccccc1)NC(=O)CN)C(=O)NCC(=O)N[C@@H](C)C(=O)N[C@@H](CC(N)=O)C(=O)N[C@@H](CC(C)C)C(=O)NCC(=O)NCC(=O)N[C@H](C(=O)N1CCC[C@H]1C(=O)N[C@@H](CCC(N)=O)C(=O)N[C@@H](CCC(N)=O)C(=O)O)[C@@H](C)O [SEQ ID NO: 10] (H-GFASFLGKALKAALKIGANLGGTPQQ-OH) | 128 µg/mL | 16,32 μg/ml | 32 µg/mL
7 | CC[C@H](C)[C@H](NC(=O)[C@H](CCCCN)NC(=O)[C@H](CC(C)C)NC(=O)[C@H](C)NC(=O)[C@H](C)NC(=O)[C@H](CCCCN)NC(=O)[C@H](CC(C)C)NC(=O)[C@H](C)NC(=O)[C@H](CCCCN)NC(=O)CNC(=O)[C@H](CC(C)C)NC(=O)[C@H](Cc1ccccc1)NC(=O)[C@H](CO)NC(=O)[C@H](C)NC(=O)[C@H](Cc1ccccc1)NC(=O)CN)C(=O)NCC(=O)N[C@@H](C)C(=O)N[C@@H](CC(N)=O)C(=O)N[C@@H](CC(C)C)C(=O)N[C@@H](CC(C)C)C(=O)NCC(=O)N[C@H](C(=O)N1CCC[C@H]1C(=O)N[C@@H](CCC(N)=O)C(=O)N[C@@H](CCC(N)=O)C(=O)O)[C@@H](C)O [SEQ ID NO: 11] (H-GFASFLGKALKAALKIGANLLGTPQQ-OH) | 64 µg/mL | 8 µg/mL | 16 µg/mL

More lines, now with the values ahead:

Row | Minimal Inhibitory Concentration (MIC), Activity, P. aeruginosa [1] | Minimal Inhibitory Concentration (MIC), Activity, E. coli (E.coli ATCC strain 25922) | Minimal Inhibitory Concentration (MIC), Activity, S. aureus [2] | Structure (SMILES)
8 | 128,256 μg/ml | 32 µg/mL | 64 µg/mL | CC[C@H](C)[C@H](NC(=O)[C@H](CCCCN)NC(=O)[C@H](CC(C)C)NC(=O)[C@H](C)NC(=O)[C@H](C)NC(=O)[C@H](CCCCN)NC(=O)[C@H](CC(C)C)NC(=O)[C@H](C)NC(=O)[C@H](CCCCN)NC(=O)CNC(=O)[C@H](Cc1ccccc1)NC(=O)[C@H](CO)NC(=O)[C@H](C)NC(=O)[C@H](Cc1ccccc1)NC(=O)CN)C(=O)NCC(=O)N[C@@H](C)C(=O)N[C@@H](CC(N)=O)C(=O)N[C@@H](CC(C)C)C(=O)N[C@@H](CC(C)C)C(=O)NCC(=O)NCC(=O)N[C@H](C(=O)N1CCC[C@H]1C(=O)N[C@@H](CCC(N)=O)C(=O)N[C@@H](CCC(N)=O)C(=O)O)[C@@H](C)O [SEQ ID NO: 5] (H-GFASFGKALKAALKIGANLLGGTPQQ-OH)
9 | 32 µg/mL | 8,16 μg/ml | 8 µg/mL | CC[C@H](C)[C@H](NC(=O)[C@H](CCCCN)NC(=O)[C@H](CC(C)C)NC(=O)[C@H](C)NC(=O)[C@H](C)NC(=O)[C@H](CCCCN)NC(=O)[C@H](CC(C)C)NC(=O)[C@H](C)NC(=O)[C@H](CCCCN)NC(=O)CNC(=O)[C@H](CC(C)C)NC(=O)[C@H](Cc1ccccc1)NC(=O)[C@H](CO)NC(=O)[C@H](C)NC(=O)[C@H](Cc1ccccc1)NC(=O)CN)C(=O)NCC(=O)N[C@@H](C)C(=O)N[C@@H](CC(N)=O)C(=O)N[C@@H](CC(C)C)C(=O)N[C@@H](CC(C)C)C(=O)NCC(=O)NCC(=O)N1CCC[C@H]1C(=O)N[C@@H](CCC(N)=O)C(=O)N[C@@H](CCC(N)=O)C(=O)O [SEQ ID NO: 12] (H-GFASFLGKALKAALKIGANLLGGPQQ-OH)
10 | 32 µg/mL | 8,16 μg/ml | 8,16 μg/ml | CC[C@H](C)[C@H](NC(=O)[C@H](CCCCN)NC(=O)[C@H](CC(C)C)NC(=O)[C@H](C)NC(=O)[C@H](C)NC(=O)[C@H](CCCCN)NC(=O)[C@H](CC(C)C)NC(=O)[C@H](C)NC(=O)[C@H](CCCCN)NC(=O)CNC(=O)[C@H](CC(C)C)NC(=O)[C@H](Cc1ccccc1)NC(=O)[C@H](CO)NC(=O)[C@H](C)NC(=O)[C@H](Cc1ccccc1)NC(=O)CN)C(=O)NCC(=O)N[C@@H](C)C(=O)N[C@@H](CC(N)=O)C(=O)N[C@@H](CC(C)C)C(=O)N[C@@H](CC(C)C)C(=O)NCC(=O)NCC(=O)N[C@H](C(=O)N[C@@H](CCC(N)=O)C(=O)N[C@@H](CCC(N)=O)C(=O)O)[C@@H](C)O [SEQ ID NO: 13] (H-GFASFLGKALKAALKIGANLLGGTQQ-OH)
